Measurements as given in PubChem BioAssay AID1671194 (National Center for Advancing Translational Sciences (NCATS), 2021).
About 240 (0.17%) of roughly 140,000 compounds were called active. This list was built around the results that the source calls inconclusive (neither active nor inactive); the mix of calls is not that of the screen. The call rests on the fitted dose curve; in most records, active means well fitted inhibition curve with a large enough effect; inconclusive means small, poorly fitted or top-dose-only effect; inactive means no such curve, though single readings can be large or run the other way. Potencies beside an inconclusive call are fits to weak or partial responses and may not hold up.

Assay: Primary qHTS assay for inhibitors of alpha-synuclein gene (SNCA) expression; further: nearly all actives have a fitted effect of over 45% in size;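 on activity change, negative = inhibition: plate controls were DMSO cells for no effect and cell-free wells for full effect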
Settings: HEK-293 SNCA-luciferase knock-in, luminescence, 24 h; activity change, negative = inhibition: at 57.2 µM (top of the series) unless noted
Potency means the concentration at half of the fitted maximal effect; tags describe the fitted curve by direction and shape.

Potency, inconclusive:
Cc1ccccc1Nc1cnc2ccc(-n3ccnc3)nn12 31.6 µM [inhibitor, partial curve, poor fit]
O=C(CC1CCCC1)NCC1CCC(=O)N(Cc2ccccc2)CC1 (configuration not stated) 7.94 µM [inhibitor, full curve]
O=C(Nc1ccc(F)cc1)N[C@H]1[C@H](O)[C@@H](N2CCCCC2)[C@@H]2OC[C@H]1O2 39.8 µM [inhibitor, partial curve]
Cc1nc(-c2cccc(Cl)c2)n(CC(=O)Nc2ccc(C(F)(F)F)cc2)c(=O)c1CCO 12.6 µM [inhibitor, partial curve, poor fit]
O=C(CSCc1ccc(F)cc1)N1CCc2c([nH]c3ccccc23)C1c1ccccc1 (configuration not stated) 0.631 µM [inhibitor, partial curve, poor fit]
O=C(c1cc(O)c(O)c([N+](=O)[O-])c1)c1ccccc1F 8.91 µM [inhibitor, full curve, poor fit]
CCN(CC)CCNC(=O)c1c(C)[nH]c(C=C2C(=O)Nc3ccc(F)cc32)c1C 0.0879 µM [inhibitor, full curve, poor fit]
COc1ccc(C(=O)N2CCCC2C(=O)N2CCC(N3CCOCC3=O)CC2)cc1 (configuration not stated) 39.8 µM [inhibitor, single point]
CC1CCC2(CC1)NC(=O)N(CC(=O)N(C)c1ccccc1)C2=O (configuration not stated) 10 µM [inhibitor, partial curve]
O=C([C@@H]1C[C@H](F)CN1S(=O)(=O)c1ccccc1)N1CCOCC1 39.8 µM [inhibitor, single point]
CCCCN(C)CC(O)Cn1cc(/C=C/C(=O)c2ccc(OCC)cc2)c2ccccc21 (configuration not stated) 25.1 µM [inhibitor, partial curve, poor fit]
COc1ccc(C(=O)Nc2ccc(-c3noc([C@@H]4CCCN4Cc4cnc5ccccc5c4)n3)cn2)cc1 39.8 µM [inhibitor, single point]
CCc1ccc(CN(C)C(C(=O)O)c2c(OC)cccc2OC)nc1 (configuration not stated) 8.91 µM [inhibitor, single point]
CCOc1ccccc1NC(=O)CCS(=O)(=O)c1ccc(OC)cc1 2.51 µM [inhibitor, single point]
COCCn1c(CO)nnc1C1CC(NC(=O)c2cccc(C#N)c2)C1 (configuration not stated) 39.8 µM [inhibitor, single point]
CCOC(=O)C1=C(CN(C)Cc2ccccc2)NC(=O)NC1c1ccc(OC(C)C)cc1 (configuration not stated) 25.1 µM [inhibitor, single point]
COc1ccc(Oc2ncc3ncc(=O)n(Cc4cccs4)c3n2)cc1 20 µM [inhibitor, single point]
O=C(c1ccccc1F)N1CCn2ncc(C(=O)N3CCOCC3)c2C1 1.26 µM [inhibitor, partial curve, poor fit]
COC(=O)c1c(SC)nc2ccccc2c1OCc1cc(C)ccc1C 14.1 µM [inhibitor, single point]
COc1cccc(-c2ccc(CN3CCCC(NC(=O)C(C)(C)C)C3)cc2)c1 (configuration not stated) 12.6 µM [inhibitor, partial curve]
COc1ccc(CNC(=O)C(=O)NCC(c2cccnc2)N2CCN(c3ccccc3F)CC2)cc1 (configuration not stated) 22.4 µM [inhibitor, single point]
NC(=O)c1cc[nH]c1C1CCCN(C(=O)NC2CCCCC2)C1 (configuration not stated) 39.8 µM [inhibitor, single point]
Cc1ccc(S(=O)(=O)c2cn(CC(=O)Nc3ccc4c(c3)OCO4)c3ccc(F)cc3c2=O)cc1 28.2 µM [inhibitor, single point]
CCc1cccc(NC(=O)c2ccc3c(=O)n4nc(Nc5ccccc5OC)sc4nc3c2)c1 2 µM [inhibitor, full curve]
O=C(NC1CCC(O)CC1)c1ccc(-c2ncc3cnc(-c4ccccc4)cn23)cc1 (configuration not stated) 12.6 µM [inhibitor, single point]
CCN(CCCNC(=O)c1cc2c(=O)[nH]c3ccc(C)cc3c2s1)Cc1ccccc1 15.8 µM [inhibitor, single point]
Cc1ccc(NC(=O)N2CCc3c(C(=O)NCc4ccncc4)cccc32)cc1 7.94 µM [inhibitor, full curve, poor fit]
O=C(Nc1ccc(Oc2ccccc2)cc1)C1CCN(S(=O)(=O)c2ccccc2)CC1 22.4 µM [inhibitor, single point]
CNC(=O)C1CCCN1c1nccc(Nc2ccccc2F)n1 (configuration not stated) 20 µM [inhibitor, partial curve, poor fit]
CCCCN(C)C(=O)CCC1CCN(c2cc(NC3CC3)ncn2)CC1 7.94 µM [inhibitor, partial curve]
CCn1c(SCC(=O)Nc2cccc(Cl)c2)nnc1-c1nonc1NC(C)=O 39.8 µM [inhibitor, single point]
CCn1cc(S(=O)(=O)N2CCC(C(=O)O)(n3cccn3)CC2)cn1 39.8 µM [inhibitor, single point]
Cc1ccc(C)c(CN2C(=O)c3ccccc3Sc3ccc(C(=O)NCCCOC(C)C)cc32)c1 3.16 µM [inhibitor, full curve, poor fit]
CCOC(=O)c1ccc(N2C(=O)c3n[nH]c(C)c3C2c2ccc(C(C)C)cc2)cc1 (configuration not stated) 2.82 µM [inhibitor, partial curve, poor fit]
Cc1ccc2nc(CO[C@H]3CN(Cc4ccc(C(=O)O)cc4)C[C@H]3F)[nH]c2c1 12.6 µM [inhibitor, single point]
Cc1ccc(OC2(C(=O)NC(C)c3nn[nH]n3)CCNCC2)cc1 (configuration not stated) 8.91 µM [inhibitor, single point]
CC(CNC(=O)c1ccc(Cn2c(SCc3ccccc3)nc3cccnc32)cc1)c1ccccc1 (configuration not stated) 5.01 µM [inhibitor, single point]
Cc1ccc(-n2nc(CO)c(C(=O)NCCO)n2)cc1 22.4 µM [inhibitor, single point]
COc1ccc(CCNC(=O)Cn2nnc(-c3cccc(C(F)(F)F)c3)n2)cc1OC 2.82 µM [inhibitor, single point]
Cc1cccc(-c2cccc(CN3CCC(NC(=O)Cc4cccc(Cl)c4)CC3)c2)c1 15.8 µM [inhibitor, single point]
COc1cccc(N2CCN(C(=O)Cn3cnc4onc(-c5ccc(F)cc5)c4c3=O)CC2)c1 39.8 µM [inhibitor, single point]
C[S+](=O)([O-])c1ccc(-c2cnc3n[nH]c(-c4ccccc4)c3n2)cc1 2.82 µM [inhibitor, full curve]
CC(C)c1nc(CN(C)C(=O)c2cn(CC3CCCNC3)nn2)cs1 (configuration not stated) 39.8 µM [inhibitor, single point]
Cn1cc(S(=O)(=O)N2CCCC2)cc1C(=O)Nc1ccc(C(F)(F)F)cc1 3.55 µM [inhibitor, single point]
O=C(CN1CCCCC1)N1CCCC(N2CCN(Cc3ccc4c(c3)OCO4)CC2)C1 (configuration not stated) 20 µM [inhibitor, single point]

Potency, inactive:
NC[C@H](O)c1ccc(O)c(O)c1

Activity change, negative = inhibition, inactive:
COc1ccc(-c2noc([C@@H]3CCCN3C(=O)c3ccc(F)c(Cl)c3)n2)cc1OC 42.6%
COc1ccc(CN2C=C(C(=O)OCc3c(C)noc3C)C(C)=NS2(=O)=O)cc1 -11.7%
O=C([C@H]1CCCN1C(=O)Nc1ccc(Cl)cc1)N1CCC(N2CCOC2=O)CC1 -6.62%
Cc1n[nH]c(C)c1C(N)C(=O)N1CCN(c2ccc3nccn3n2)CC1 (configuration not stated) -15.4%
COc1ccc(-c2nnc3n2CCN(C(=O)Nc2ccc(Cl)cc2)C3)cc1 11.7%
COCCN(Cc1ccccn1)C(=O)c1ccc2c(c1)ncn2C 1.58%
Cc1ccc(C(=O)NC2CCN(C(=O)c3ccc(-c4ncccc4C#N)cc3)CC2)cc1 -2.89%
Cc1cccc(CNC(=O)c2ccc(Cn3c(SCc4ccccc4)nc4cccnc43)cc2)c1 97.3%
O=C(Cc1ccccn1)NC1CCN(c2nc3ncccc3o2)C1 (configuration not stated) -5.59% [at 87.6 µM]
O=C(NC1CCN(Cc2ccccc2)CC1)C1CN(C2CCCCC2)C(=O)N1 (configuration not stated) -11.9%
c1ccc(CCN2CCNc3cc(NCc4cccnc4)ncc3C2)cc1 -25.3% [at 87.6 µM]
C[C@](Cc1ccc(O)c(O)c1)(NN)C(=O)O -15.9%
O=C(Cc1cccc(F)c1)N1CC(Oc2cccc(-c3nc(-c4ccccc4)no3)c2)C1 19.8%
Cc1ccc(NC(=O)CN2CCN(C3CCCCC3)C(=O)C2=O)cc1 -2.08%
O=C(NCCCc1ccccn1)c1ccc2nc(-c3ccc(F)cc3)cn2c1 103%
CC(C)(C)C(=O)N[C@H]1CO[C@H]2[C@@H]1OC[C@@H]2Nc1nccc(-c2cccc(C#N)c2)n1 5.92% [at 87.6 µM]
O=C1NC2(CCN(CC3CCCCC3)C2)Oc2ccccc21 (configuration not stated) 30.8% [at 87.6 µM]
COc1cccc(CNC(=O)C2CCN(Cc3ccccc3-c3cccnc3)CC2)c1 -2.01%
CC(C)C(=O)N1CCCC1Cc1noc(Cc2ccccc2)n1 (configuration not stated) 20.3%
COC(=O)N1CCN(c2nccc(Nc3ccccc3OC)n2)CC1 153%
O=C(NCc1ccc(F)cc1)C1CN(C2CCCC2)C(=O)N1 (configuration not stated) 10.6% [at 87.6 µM]
